Patent US6946544 (AEGERA THERAPEUTICS, dated 2005)

Key:
[1] = target: T1, 35S-labeled in vitro translated TRAF2 (UniProt Q12933 2-501, 35S labeled methionine); assay: pull-down of 35S-labeled in vitro translated protein on GST-control protein on glutathione beads, SDS-PAGE and autoradiography
T1 construct: mature; Made from the pcDNA3-myc construct with the TNT T7 Coupled Reticulocyte Lysate System
T1 sequence (looked up): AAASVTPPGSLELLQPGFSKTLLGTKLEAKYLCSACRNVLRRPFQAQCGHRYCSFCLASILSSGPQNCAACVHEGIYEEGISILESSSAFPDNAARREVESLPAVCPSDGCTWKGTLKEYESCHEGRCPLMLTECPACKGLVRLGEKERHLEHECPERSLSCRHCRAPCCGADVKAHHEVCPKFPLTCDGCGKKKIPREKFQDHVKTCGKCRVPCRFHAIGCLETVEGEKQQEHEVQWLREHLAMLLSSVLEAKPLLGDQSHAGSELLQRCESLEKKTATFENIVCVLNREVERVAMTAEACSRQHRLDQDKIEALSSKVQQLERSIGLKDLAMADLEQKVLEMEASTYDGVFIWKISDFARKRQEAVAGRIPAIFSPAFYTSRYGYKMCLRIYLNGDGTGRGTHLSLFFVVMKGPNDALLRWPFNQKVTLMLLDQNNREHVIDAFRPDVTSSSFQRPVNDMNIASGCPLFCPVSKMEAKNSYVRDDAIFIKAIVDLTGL
Protocol: (§1) ^35S-labeled in vitro translated proteins were incubated with GST-XAF-1 fusion protein or GST-control protein immobilized on 10 μl of glutathione beads. Protein adsorbed to beads were analyzed by SDS-PAGE. The protein bearing gel was then dried, and adsorbed proteins were detected by autoradiograph of the gel. The lanes were loaded as follows: lane 1: HIAP1, lane 2: TRAF2. Proteins in A lanes were affinity-purified with the GST-XAF-1 fusion protein. Proteins in B lanes were affinity-purified with the GST-control protein.

[2] = target: T2, 35S-labeled in vitro translated HIAP-1 (human, UniProt Q13489, 35S labeled methionine); assay: as above
T2 construct: mature; Made from the pcDNA3-myc construct with the TNT T7 Coupled Reticulocyte Lysate System
Protocol: as §1

B1: GST-control protein (Glutathione-s-transferase from Schistosoma Japonicum) (enzyme)
chain: not shown
notes: Control protein immobilized on glutathione beads
binding result [1]: no binding | binding result [2]: no binding
